{"source": "patent US20210238260A1", "about": "(published 2021)", "key": {"[1]": {"molecular_target": "T1, Factor VIIIa (recombinant FVIII, Kogenate FS, activated with alpha-thrombin) (UniProt P00451 20-2351)", "T1 construct": "also called FVIIIa; cofactor", "T1 sequence (looked up)": "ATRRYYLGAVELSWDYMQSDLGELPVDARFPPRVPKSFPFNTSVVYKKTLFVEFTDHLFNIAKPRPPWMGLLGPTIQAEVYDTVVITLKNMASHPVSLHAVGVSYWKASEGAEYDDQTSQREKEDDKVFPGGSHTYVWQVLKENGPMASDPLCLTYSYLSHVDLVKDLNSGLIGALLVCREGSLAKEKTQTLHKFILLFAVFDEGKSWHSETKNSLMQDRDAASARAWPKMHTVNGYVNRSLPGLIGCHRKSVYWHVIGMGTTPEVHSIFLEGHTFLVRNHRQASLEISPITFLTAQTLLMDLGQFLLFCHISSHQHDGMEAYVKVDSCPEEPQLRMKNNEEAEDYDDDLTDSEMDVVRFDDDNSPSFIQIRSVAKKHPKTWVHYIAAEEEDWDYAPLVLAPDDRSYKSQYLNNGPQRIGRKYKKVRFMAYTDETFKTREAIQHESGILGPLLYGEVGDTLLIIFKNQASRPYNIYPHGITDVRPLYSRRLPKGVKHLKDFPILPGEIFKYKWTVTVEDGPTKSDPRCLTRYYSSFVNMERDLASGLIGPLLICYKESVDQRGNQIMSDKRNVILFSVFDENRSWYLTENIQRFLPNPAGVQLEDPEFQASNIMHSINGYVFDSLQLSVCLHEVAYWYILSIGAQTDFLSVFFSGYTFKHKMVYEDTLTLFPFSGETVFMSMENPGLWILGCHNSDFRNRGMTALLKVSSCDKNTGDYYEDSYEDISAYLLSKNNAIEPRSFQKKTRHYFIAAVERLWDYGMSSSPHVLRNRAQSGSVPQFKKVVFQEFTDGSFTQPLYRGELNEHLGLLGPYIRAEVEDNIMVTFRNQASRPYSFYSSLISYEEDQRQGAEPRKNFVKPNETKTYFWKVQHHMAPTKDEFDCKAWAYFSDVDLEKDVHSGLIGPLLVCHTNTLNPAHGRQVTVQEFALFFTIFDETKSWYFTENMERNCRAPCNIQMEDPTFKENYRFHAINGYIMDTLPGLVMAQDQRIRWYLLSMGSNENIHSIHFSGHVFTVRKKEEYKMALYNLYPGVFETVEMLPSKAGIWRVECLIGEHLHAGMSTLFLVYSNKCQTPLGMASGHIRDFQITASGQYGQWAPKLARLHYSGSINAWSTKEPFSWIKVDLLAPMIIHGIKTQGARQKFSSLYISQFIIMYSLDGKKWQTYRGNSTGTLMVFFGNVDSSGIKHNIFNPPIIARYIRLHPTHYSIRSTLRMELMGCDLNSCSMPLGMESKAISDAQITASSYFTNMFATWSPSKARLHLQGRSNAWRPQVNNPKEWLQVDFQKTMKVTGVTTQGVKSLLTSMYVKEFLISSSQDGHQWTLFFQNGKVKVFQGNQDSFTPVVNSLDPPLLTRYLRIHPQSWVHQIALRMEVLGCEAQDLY", "experiment": "same assay; ratio of KD-app of Catalyst Biosciences WT FIXa to KD-app of this FIXa"}, "[2]": {"molecular_target": "T1, Factor VIIIa (recombinant FVIII, …)", "experiment": "apparent functional KD (KD-app): FXa generation by FIXa with FVIIIa titrated, PC/PS vesicles, saturating FX, fluorogenic Spectrafluor FXa"}, "[3]": {"molecular_target": "T2, plasma purified human antithrombin III (AT-III), in complex with unfractionated heparin (UFH) (human, UniProt P01008)", "T2 construct": "also called AT-III/UFH", "experiment": "K0.5: AT-III conc. (with UFH) for 50% inhibition of FIXa cleavage of Mesyl-D-CHG-Gly-Arg-AMC"}, "[4]": {"molecular_target": "T3, antithrombin III (plasma purified human AT-III, Molecular Innovations) (human, UniProt P01008)", "T3 construct": "also called AT-III/UFH", "experiment": "AT-III/UFH inhibition of FIXa cleavage of Mesyl-D-CHG-Gly-Arg-AMC; K0.5 = AT-III conc. for 50% inhibition (AT-III varied)"}, "[5]": {"molecular_target": "T4, plasma purified human AT-III (antithrombin III) in complex with unfractionated heparin (human, UniProt P01008)", "T4 construct": "also called AT-III/UFH", "experiment": "AT-III/UFH inhibition of FIXa, residual activity on Mesyl-D-CHG-Gly-Arg-AMC; K0.5 = AT-III conc. for 50% inhibition"}}, "data": [{"binder": "FIXa-D104N/K106S/I251S (enzyme) chain 1: YNSGKLEEFVQGNLERECMEEKCSFEEAREVFENTERTTEFWKQYVDGDQCESNPCLNGGSCKDDINSYECWCPFGFEGKNCELDVTCNIKNGRCEQFCKNSANNSVVCSCTEGYRLAENQKSCEPAVPFPCGRVSVSQTSKLTR chain 2: [no letters for about 250 residues with changes]", "note": "[FIXa-D104N/K106S/I251S, listing 1 of 2 here]", "values": [{"measurement": "KD-WT/KD-mut", "setting": "[1]", "result": 0.3}, {"measurement": "Kd", "setting": "[2]", "result": 306, "unit": "nM"}]}, {"binder": "FIXa-A103N/N105S/K228N (enzyme) chain 1: YNSGKLEEFVQGNLERECMEEKCSFEEAREVFENTERTTEFWKQYVDGDQCESNPCLNGGSCKDDINSYECWCPFGFEGKNCELDVTCNIKNGRCEQFCKNSNDSKVVCSCTEGYRLAENQKSCEPAVPFPCGRVSVSQTSKLTR chain 2: [no letters for about 250 residues with changes]", "values": [{"measurement": "IC50", "setting": "[3]", "result": 46, "unit": "nM"}]}, {"binder": "FIXa-D85N/D203N/F205T (enzyme, also called D[85]N/D39N/F41T) chain 1: YNSGKLEEFVQGNLERECMEEKCSFEEAREVFENTERTTEFWKQYVDGDQCESNPCLNGGSCKDDINSYECWCPFGFEGKNCELNVTCNIKNGRCEQFCKNSADNKVVCSCTEGYRLAENQKSCEPAVPFPCGRVSVSQTSKLTR chain 2: [no letters for about 250 residues with changes]", "values": [{"measurement": "IC50", "setting": "[3]", "result": 587, "unit": "nM"}]}, {"binder": "FIXa-D85N/I251S (enzyme, also called D[85]N/I86S) chain 1: YNSGKLEEFVQGNLERECMEEKCSFEEAREVFENTERTTEFWKQYVDGDQCESNPCLNGGSCKDDINSYECWCPFGFEGKNCELNVTCNIKNGRCEQFCKNSADNKVVCSCTEGYRLAENQKSCEPAVPFPCGRVSVSQTSKLTR chain 2: [no letters for about 250 residues with changes]", "values": [{"measurement": "IC50", "setting": "[3]", "result": 19, "unit": "nM"}]}, {"binder": "FIXa-D85N/K228N (enzyme, also called D[85]N/K63N) chain 1: YNSGKLEEFVQGNLERECMEEKCSFEEAREVFENTERTTEFWKQYVDGDQCESNPCLNGGSCKDDINSYECWCPFGFEGKNCELNVTCNIKNGRCEQFCKNSADNKVVCSCTEGYRLAENQKSCEPAVPFPCGRVSVSQTSKLTR chain 2: [no letters for about 250 residues with changes]", "values": [{"measurement": "IC50", "setting": "[3]", "result": 34, "unit": "nM"}]}, {"binder": "FIXa A103N/N105S/K228N (enzyme) light: YNSGKLEEFVQGNLERECMEEKCSFEEAREVFENTERTTEFWKQYVDGDQCESNPCLNGGSCKDDINSYECWCPFGFEGKNCELDVTCNIKNGRCEQFCKNSNDSKVVCSCTEGYRLAENQKSCEPAVPFPCGRVSVSQTSKLTR heavy: [no letters for about 250 residues with changes]", "values": [{"measurement": "IC50", "setting": "[4]", "result": 46, "unit": "nM"}]}, {"binder": "FIXa D85N/D203N/F205T (enzyme, also called D[85]N/D39N/F41T) light: YNSGKLEEFVQGNLERECMEEKCSFEEAREVFENTERTTEFWKQYVDGDQCESNPCLNGGSCKDDINSYECWCPFGFEGKNCELNVTCNIKNGRCEQFCKNSADNKVVCSCTEGYRLAENQKSCEPAVPFPCGRVSVSQTSKLTR heavy: [no letters for about 250 residues with changes]", "values": [{"measurement": "IC50", "setting": "[4]", "result": 587, "unit": "nM"}]}, {"binder": "FIXa D85N/I251S (enzyme, also called D[85]N/I86S) light: YNSGKLEEFVQGNLERECMEEKCSFEEAREVFENTERTTEFWKQYVDGDQCESNPCLNGGSCKDDINSYECWCPFGFEGKNCELNVTCNIKNGRCEQFCKNSADNKVVCSCTEGYRLAENQKSCEPAVPFPCGRVSVSQTSKLTR heavy: [no letters for about 250 residues with changes]", "values": [{"measurement": "IC50", "setting": "[4]", "result": 19, "unit": "nM"}]}, {"binder": "FIXa D85N/K228N (enzyme, also called D[85]N/K63N) light: YNSGKLEEFVQGNLERECMEEKCSFEEAREVFENTERTTEFWKQYVDGDQCESNPCLNGGSCKDDINSYECWCPFGFEGKNCELNVTCNIKNGRCEQFCKNSADNKVVCSCTEGYRLAENQKSCEPAVPFPCGRVSVSQTSKLTR heavy: [no letters for about 250 residues with changes]", "values": [{"measurement": "IC50", "setting": "[4]", "result": 34, "unit": "nM"}]}, {"binder": "FIXa-A103N/N105S/I251S (enzyme) chain 1: YNSGKLEEFVQGNLERECMEEKCSFEEAREVFENTERTTEFWKQYVDGDQCESNPCLNGGSCKDDINSYECWCPFGFEGKNCELDVTCNIKNGRCEQFCKNSNDSKVVCSCTEGYRLAENQKSCEPAVPFPCGRVSVSQTSKLTR chain 2: [no letters for about 250 residues with changes]", "values": [{"measurement": "IC50", "setting": "[5]", "result": 42, "unit": "nM"}]}, {"binder": "FIXa-D104N/K106S/I251S (enzyme) chain 1: YNSGKLEEFVQGNLERECMEEKCSFEEAREVFENTERTTEFWKQYVDGDQCESNPCLNGGSCKDDINSYECWCPFGFEGKNCELDVTCNIKNGRCEQFCKNSANNSVVCSCTEGYRLAENQKSCEPAVPFPCGRVSVSQTSKLTR chain 2: [no letters for about 250 residues with changes]", "note": "[FIXa-D104N/K106S/I251S, listing 2 of 2 here]", "values": [{"measurement": "IC50", "setting": "[5]", "result": 32, "unit": "nM"}]}]}
